Laboratory results: ChEMBL document CHEMBL4888484, “Replenishing the malaria drug discovery pipeline: Screening and hit evaluation of the MMV Hit Generation Library 1 (HGL1) against asexual blood stage Plasmodium falciparum ,using a nano luciferase reporter read-out” (2022)
Out of some 150,000 compounds screened, about 540 (0.36%) showed an effect of 50% or more. The list shows a part of the results.

What follows are compounds tested on Plasmodium falciparum (assay: Primary screen in NF54 nanoGlo assay, in single point, at 2uM, 72h; a lower Z score goes with more inhibition). Conditions: timepoint 72 hour.
Type: functional, Erythrocyte

SMILES | % Inhibition | Z score
C[C@H](NC(=O)CCC1CCN(C)CC1)c1cc(F)cc(F)c1 | -7% | 1.03
O=C(Cc1cccnc1)N1CCO[C@@H](Cc2ccccc2Cl)C1 | -6% | 0.76
Cn1c(=O)n(C)c2cc(S(=O)(=O)N3CCCC3)c(Cl)cc21 | -12% | 1.89
Cc1cc(C)cc(NC(=O)N2CCN(c3nc4cc(Br)ccc4n4cccc34)CC2)c1 | 1% | -0.18
CC(C)[C@@H](C(=O)NCC1(c2ccncc2)CCCC1)N1CCCS1(=O)=O | -2% | 0.3
c1ccc(C[C@H]2CN(C3CC3)CCN2)cc1 | -14% | 1.64
Cc1cc(C(=O)NC2(C(N)=O)CCCCCC2)c2ccc(Cl)cc2n1 | -8% | 1.37
Cc1nc(C)c(CNc2ccc(Cc3nnc4ccccn34)cc2)s1 | -7% | 0.76
Cc1ncnc(N2CC[C@@]3(C2)C(=O)Nc2ccccc23)c1C | -14% | 1.36
Cc1cc(=O)n(CCC(=O)O)c2nn(Cc3ccccc3)cc12 | -39% | 4.6
O=C(NCCNC(=O)C1CC=CCC1)C1CC=CCC1 (stereo unspecified) | -24% | 2.78
Cc1ccc(CN2C(=O)NC3(CCCCC3)C2=O)c(O[C@H]2CCOC2)c1 | -9% | 0.98
Cc1nccn1-c1cncc(N2CC[S@+]([O-])C(C)(C)C2)n1 | -16% | 1.33
NC(=O)c1ccc([C@@H]2CCCN2C(=O)Cn2c(C3CC3)nc3ccccc32)s1 | -2% | 0.25
CCc1ccc(C(CO)NC(=O)C2COC(C)C2)cc1 (stereo unspecified) | 29% | -3.26
COCCC(=O)N1C(C)CN(C)CC1C (stereo unspecified) | -1% | 0.08
CC(=O)c1cnc(NCCCc2csc(N)n2)nc1C | -20% | 1.87
CN(C)C(=O)c1cccc(-c2ccc3[nH]ccc3c2)n1 | 7% | -0.96
CN1CCCC1C1CCCN1C(=O)c1c[nH]nc1-c1ccncc1 (stereo unspecified) | 8% | -1.14
CC(C)c1cc(NC[C@H](O)c2c[nH]cn2)ncn1 | -5% | 0.47
CCc1noc(CN(CC)Cc2cccc3[nH]ccc23)n1 | -3% | 0.65
Cc1cc(C(=O)NCc2nccnc2-c2cccs2)no1 | -13% | 2.43

SMILES | % Inhibition | Z score
CC(C)c1scnc1C(=O)NCc1cccc(N)n1 | -8% | 1.06
CN(C)c1ccc(NC(=O)Cc2cnn(-c3ccccc3)c2)cn1 | -12% | 1.6
O=C(Nc1cccs1)N[C@H]1CCN(Cc2ccsc2)C1 | -6% | 0.97
COc1ccnc(Cn2ccc3ncccc3c2=O)c1OC | -10% | 1.08
CC(O)CC1COCCN1C(=O)NC1CCC(C)c2ccccc21 (stereo unspecified) | -5% | 0.66
Cc1ccc(S(=O)(=O)NCC2(N(C)C)CCCC2)c(Br)c1 | -1% | 0.08
CCC1=NS(=O)(=O)c2cccnc2N1c1ccccc1 | -12% | 1.18
COCC1CN(C(=O)[C@@H](N)Cc2ccccc2)CCO1 (stereo partly specified) | -17% | 2.52
O=C(Cc1ccc(F)cc1Cl)NCCCC[C@H]1CCCO1 | -20% | 2.06
C=CCOc1ccccc1CN1CCC2CCC(C1)N2 (stereo unspecified) | -2% | 0.18
CCC(NC(=O)c1ccc(=O)n(C)c1)C1CCCO1 (stereo unspecified) | 0% | 0
O=S(=O)(CCOC1CCOC1)NC1CCc2cc(F)ccc21 (stereo unspecified) | -13% | 1.61
Cc1ccc(-c2csc(NC(=O)c3cccc(C(=O)Nc4nc(-c5ccc(C)cc5C)cs4)n3)n2)c(C)c1 | 40% | -5.21
Fc1cccc(-c2cc(N3CCNCC3)nc3ccccc23)c1 | -3% | 0.37
O=C(CC1CCCC1)Nc1nc(-c2cc(F)ccc2F)cs1 | -11% | 1.08
Cc1ccc(-c2noc(Cc3nc(-c4ccc5c(c4)OCO5)cs3)n2)cc1 | -13% | 1.25
O=S(=O)(N[C@@H](c1ccsc1)c1cccs1)c1cccc2nsnc12 | 0% | -0.02
CCOc1ccc([C@@H](CC(=O)N2CCN(CC)CC2)c2c[nH]c3ccccc23)cc1 | -5% | 0.61
COc1cccc(C(NC2CCOC2)c2cc(F)ccc2OC)c1 (stereo unspecified) | -2% | 0.25
Fc1cccc(F)c1CC[C@H]1CCCNC1 | 6% | -1.27
CS(=O)(=O)N1CC(CN2CCCNc3ccccc32)C1 | -7% | 1.11
